The source of these data is PubChem BioAssay (NCI).

The structures appear in SMILES notation.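 Grown in 96-well plates, cells were treated for 48 hours with each compound at five concentrations. Insufficient inhibition: endpoint recorded as highest concentration tested. At the GI50, growth is halved.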 For part of its entries the source gives two or more results. The list is limited to them. There may be further records. A record mostly stands for its own series of concentrations, which the source does not state; some values may only mark the edge of a range.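 Definition used: TGI = concentration required for complete inhibition of growth.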

Among the test systems are IGROV1 ovarian; NCI-H23 lung; A498 renal; A549 NSCLC; HOP-92 NSCLC; NCI-H226 lung; OVCAR-5 ovarian; SK-MEL-28 melanoma; SNB-75 CNS; TK-10 renal; UO-31 renal.
Test in all cases: NCI tumour cell line growth inhibition, 48 h

In the case of `O=C1NC2(CCCCC2)C(=O)N1CCN(CCCl)CCCl`, the TGI is 25 µM and > 250 µM with IGROV1 ovarian; 25 µM and > 250 µM in the assay on NCI-H23 lung.

For the compound `CC[C@H](C)[C@H](NC(=O)[C@H]1CCCCN1C)C(=O)N(C)[C@H](C[C@@H](OC(C)=O)c1cccc(C(=O)N[C@@H](Cc2ccccc2)C[C@H](C)C(=O)O)n1)C(C)C`, the TGI in the assay on A498 renal is 858 nM and < 2.5 nM; in the assay with HOP-92 NSCLC it was 93.7 nM and > 25 µM. The GI50 in the assay on A549 NSCLC was 34.9 nM and 2.5 nM; in the assay on HOP-92 NSCLC, 0.428 nM and 2.97 µM; in the assay with NCI-H226 lung, 127 nM and 7.78 nM; with OVCAR-5 ovarian it was 47.9 nM and 2.5 nM; in the assay on SK-MEL-28 melanoma it was 56 nM and > 25 µM; with SNB-75 CNS, 1.74 nM and 14.4 µM. The GI50 with TK-10 renal is 265 nM and > 25 µM; in the assay on UO-31 renal it was 47.3 nM and 1.21 µM.
